The structures appear in SMILES notation. Converted amounts (≈) assume the structure as drawn.

The test system of data set [1] is M. smegmatis. Kind of data set: REMA checkerboard assay with isoniazid. The data set is classed as cell-based. The settings on record: for interaction with isoniazid: checkerboard; for ΣFIC (fractional inhibitory index): combination with isoniazid, ≤0.5 synergy, ≥4 antagonism.
Data set [2] relates to E. coli. Kind of data set: MIC by REMA. The class given is cell-based, Escherichia coli. The settings on record: at concentrations as high as 250 μg·mL^−1.
The subject of data set [3] is M. smegmatis. The data set can be described thus: Time kill studies. The class given is cell-based. The settings on record: 2× MBC.
Data set [4] concerns M. smegmatis. The data set can be described thus: MIC by resazurin reduction microplate assay (REMA). The class given is cell-based, M. smegmatis MC^2155. The settings on record: Mycolicibacterium smegmatis, M. smegmatis, Table 1, mean ± SEM, n = 5; read-out: MIC.
Data set [5] concerns P. putida. The data set can be described thus: MIC by REMA. The data set is classed as cell-based, Pseudomonas putida. To be noted: at concentrations as high as 250 μg·mL^−1.
Data set [6] relates to M. smegmatis. The data set can be described thus: Determination of the MBC. The data set is classed as cell-based. To be noted: for MBC: Mycolicibacterium smegmatis, M. smegmatis, lowest concentration with no CFUs; for bactericidal activity: actively growing M. smegmatis.
Data set [7] relates to ovine red blood cells. Kind of data set: Agglutination assay. The settings on record: any concentration tested up to 250 μg·mL^−1. The data set is classed as cell-based.
The subject of data set [8] is mouse macrophage cell line RAW 264.7. The settings on record: cited from earlier work.
Data set [9] is classed as in vitro ADME. The settings on record: CD-1, mouse, microsomes, 1 μg·mL, pH 7.4.
Data set [10] relates to M. tuberculosis. Details: method as in Jeney and Zsolnai, 1956; Abuhammad et al., 2012. The settings on record: ref Jeney and Zsolnai, 1956, Abuhammad et al., 2012, listed as compound 1; cited from earlier work.
The subject of data set [11] is human cell line U937. The settings on record: cited from earlier work.

Regarding `CN(CCC(=O)c1ccccc1)CCC(=O)c1ccccc1` [Compound 2, 3,3′-(methylazanediyl)bis(1-phenylpropan-1-one)], in data set [1], the interaction with isoniazid result was “no antagonistic interaction” and the “ΣFIC (fractional inhibitory index)” value is listed as 3. For the same compound, the “effect on the growth of E. coli” value in data set [2] is recorded as “do not have any effect”. The “time to apparently complete eradication of viable M. smegmatis” value in data set [3] was not above 5 h. The “time to two-log reduction in CFUs” value in data set [3] (M. smegmatis) is listed as 3 h. For the same compound, the MIC in data set [4] came out at 125 µg/mL (≈ 423 µM). The “effect on the growth of P. putida” value in [5] is on record as “do not have any effect”. Also, in data set [6], the MBC was 78 to 156 µg/mL (≈ 264 to 528 µM) and the bactericidal activity entry is given as “bactericidal”.
In the case of `CO[C@H]1/C=C/O[C@@]2(C)Oc3c(C)c(O)c4c(O)c(c(/C=N/N5CCN(C)CC5)c(O)c4c3C2=O)NC(=O)/C(C)=C\C=C\[C@H](C)[C@H](O)[C@@H](C)[C@@H](O)[C@@H](C)[C@H](OC(C)=O)[C@@H]1C` [Rifampicin, reference compound], the “reduction in CFUs” value in data set [3] (M. smegmatis, during the time kill period) was “no reduction in CFUs”.
Regarding `CN1CCC(O)(c2ccccc2)C(C(=O)c2ccccc2)C1` (stereo not drawn) [Compound 1], in data set [1], the interaction with isoniazid result is recorded as “no antagonistic interaction” and the “ΣFIC (fractional inhibitory index)” value stood at 1.5. Moreover, the “effect on the growth of E. coli” value in data set [2] is listed as “do not have any effect”. For the same compound, the “time to apparently complete eradication of viable M. smegmatis” value in [3] is recorded as not above 3 h. For the same compound, in [3] (M. smegmatis), the “time to two-log reduction in CFUs” value is recorded as 90 min. Moreover, the “agglutination of ovine red blood cells” value in [7] is reported as “No lysis or agglutination”. Also, in data set [4], the MIC came to 62.5 µg/mL (≈ 212 µM). Besides, in data set [8], the toxicity entry is reported as “low toxicity”. In addition, the CLint in [9] was more than 48 μL·min^−1·mg^−1 protein. For the same compound, the “effect on the growth of P. putida” value in data set [5] is given as “do not have any effect”. In data set [10], the minimum inhibitory concentration (MIC) is less than 5 µg/mL. In addition, in data set [11], the toxicity entry is recorded as “low toxicity”. Moreover, in [6], the MBC came out at 312 µg/mL (≈ 1060 µM) and the bactericidal activity entry is listed as “bactericidal”.

What is called MIC is the lowest concentration found to suppress growth. As a reminder, the MBC is the smallest concentration meeting the test's criterion for killing.
